Assay results published in PubChem BioAssay AID2546 (National Center for Advancing Translational Sciences (NCATS), 2010).
Out of some 310,000 compounds screened, about 11,000 (3.5%) were called active. The inconclusive results got no clear call from the source; some entries with a clear call stand among them for comparison. Calls come from the whole dose curve; as a rule, active = well fitted inhibition curve with a large enough effect; inconclusive = small, poorly fitted or top-dose-only effect, or effect the other way; inactive = flat fitted curve, though single readings scatter. Potencies of inconclusive entries are left out as doubtful fits.

Assay: VP16 counterscreen qHTS for inhibitors of ROR gamma transcriptional activity;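 note: Gal4-VP16 expression switched on by copper sulfate through the metallothionein promoter; nearly all actives have a fitted effect of over 50% in size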
Conditions: Drosophila S2 Gal4-VP16 UAS-luciferase, luminescence, 20 h; series mostly up to 53.6 µM
Potency is the fitted concentration of half-maximal effect; tags give direction and shape of the fitted curve.

SMILES	Potency
Cc1ccc(NC2=C(Cl)C(=O)c3ccccc3C2=O)cc1	inconclusive [inhibitor, single point]
COc1ccc(NC(=O)CCC(=O)N/N=C/c2ccc([N+](=O)[O-])s2)cc1	inconclusive [inhibitor, single point]
CSc1ccc(-c2nc(CSCC(=O)NC3CC3)c(C)o2)cc1	inconclusive [inhibitor, partial curve]
CCCCc1ccc(NC(=S)NCc2ccc(OC)cc2)cc1	inconclusive [inhibitor, single point]
Cc1cnc(NC(=O)COc2ccc3c(c2)CCC3)s1	inconclusive [inhibitor, single point]
Cc1cccc(N2CCN(S(=O)(=O)c3ccc(-c4ccc(=O)[nH]n4)o3)CC2)c1C	inconclusive [inhibitor, single point]
CCOC(=O)c1sc(NC(=O)CSc2nnnn2-c2ccc(C)c(C)c2)nc1C	inactive
O=C(NC1CCCCCC1)c1cc2ccccc2oc1=O	inconclusive [inhibitor, partial curve]
CCNC(=O)c1c(NC(C)=O)sc2c1CCCC2	inactive
Cc1ccc2nc(-c3ccc(S(=O)(=O)N4CCOCC4)cc3)cn2c1	inactive
COc1ccc(CNC(=O)c2noc3c2CCCCC3)cc1	inconclusive [activator, partial curve]
Cc1c(Cl)cccc1NC(=S)N=Nc1c(O)n(CN2CCOCC2)c2ccccc12	active: 5.01 µM
CCNC(=S)N(Cc1cc2cccc(C)c2[nH]c1=O)C1CCCC1	inconclusive [inhibitor, single point]
COc1ccccc1CCN1CCCC(CN(C)C(=O)CCC(N)=O)C1 (centres undefined)	inactive
CC1=CC(=O)C(C(C)C)=C/C1=N/OS(=O)(=O)c1ccccc1	active: 2 µM
CCc1cccc2c(C(=O)CSc3nncn3-c3ccccc3OC)c[nH]c12	inconclusive [inhibitor, full curve]
Nc1nc(N)c(N=O)c(OCC2CCCCC2)n1	inconclusive [inhibitor, single point]
CCOc1c(C)cnc2c1c(=O)n(Cc1cccc(Cl)c1)c(=O)n2C	inconclusive [inhibitor, single point]
O=C(Nc1ccc(NC(=O)c2ccccn2)cc1)C(=O)Nc1ccc2c(c1)OCCO2	inactive
Cn1c(=O)c([N+](=O)[O-])c(Oc2ccccc2)c2ccccc21	inconclusive [inhibitor, single point]
O=C(NC(=S)Nc1ccc(CN2CCOCC2)cc1)c1ccc2c(c1)OCCO2	inconclusive [inhibitor, partial curve]
O=C(CC12CC3CC(CC(C3)C1)C2)N/N=C/c1ccc([N+](=O)[O-])o1	inconclusive [inhibitor, single point]
Cc1ccc(-c2csc(NC(=O)CSc3nc(C)cc(=O)[nH]3)n2)cc1	inconclusive [inhibitor, single point]
CC(=O)c1ccc(N2CCN(C(=O)c3ccco3)CC2)c(F)c1	inconclusive [inhibitor, single point]
CCOC(=O)c1sc(Nc2nc3cc4c(cc3s2)OCO4)cc1C	active: 6.31 µM

SMILES	Potency
Cc1ccc(C)c(-c2cc(C(=O)NNC(=S)NCC(C)C)c3ccccc3n2)c1	inconclusive [inhibitor, single point]
CC(C)c1ccc(/C=N/NC(=O)c2ccccn2)cc1	inconclusive [inhibitor, single point]
Cc1ccc(/C=N/NC(=O)CCCOc2ccc(Cl)cc2Cl)cc1	inconclusive [inhibitor, single point]
Cc1nc(C)c(C(=O)N/N=C/c2cc(Br)ccc2O)s1	active: 7.94 µM
CC(C)NC(=S)NC(=O)/C=C/c1cccc2ccccc12	active: 4.47 µM
CCN(CC)c1ccc(C(=S)N2CCN(c3ccccc3)CC2)cc1	inconclusive [inhibitor, single point]
Cc1c(C)n(Cc2ccc(Cl)cc2)c2ccc(C(=O)NCCCN3CCOCC3)cc12	inconclusive [inhibitor, single point]
COc1cccc2c1OC1(C)CC2NC(=O)N1c1cccc(C(=O)N2CCN(c3ccccn3)CC2)c1 (centres undefined)	inactive
Cn1c(=NC(=O)CCl)sc2ccccc21	inconclusive [inhibitor, single point]
NC(=O)c1cnccn1	inactive
S=C(NCCN1CCOCC1)Nc1ccccc1Cl	inactive
Cc1ccc(CCSc2ccc(C(C)C)cc2)cn1	inconclusive [inhibitor, single point]
O=[N+]([O-])c1ccc(-c2ccc(/C=N/Nc3nc(NCc4ccccc4)nc(N4CCOCC4)n3)o2)cc1	inconclusive [inhibitor, partial curve]
Cc1cccnc1NC(=O)c1cccc(S(=O)(=O)N2CCCc3ccccc32)c1	inconclusive [inhibitor, single point]
COc1cc2c(cc1OC)C(C)N(C(=S)NC(=O)c1ccccc1)CC2 (centres undefined)	active: 2.24 µM
O=C(Nc1ccc([N+](=O)[O-])cc1)c1nc[nH]c1C(=O)NC1CCCCC1	active: 3.55 µM
CC(C)C(NC(N)=O)C(=O)NC1CCCCC1 (centres undefined)	inactive
Cc1ccc(C(=O)N/N=C\C=C\c2ccccc2[N+](=O)[O-])cn1	inconclusive [inhibitor, single point]
Cc1ccc(NC(=O)CSc2ncnc3ccccc23)cc1S(=O)(=O)N1CCCCC1	inconclusive [inhibitor, single point]
CNC(=S)N/N=C/c1cccc(OCc2ccccc2F)c1	active: 4.47 µM
O=C(N/N=C\c1ccc(Cl)s1)C1COc2ccccc2O1 (centres undefined)	active: 0.891 µM
COc1cc(CNC(C)(C)CO)cc(Br)c1OCc1ccc(Cl)cc1Cl	inconclusive [inhibitor, single point]
CC1(C)Cc2nc3sc4c(OCc5ccccc5)ncnc4c3cc2CO1	inactive
O=C(NCC(=O)N1CCN(c2ncc(C(F)(F)F)cc2Cl)CC1)c1ccc(Br)o1	inactive
O=C(Nc1cnn(Cc2ccc(Cl)cc2Cl)c1)c1cc(-c2cccs2)on1	inactive

SMILES	Potency
CCC[C@@H](CN[C@@H](CNC)[C@H](C)CC)NCC1CCC(C(C)(C)C)CC1 (some centres undefined)	inconclusive [inhibitor, single point]
Cc1cc(C)nc(SCC(=O)Nc2ncc(Cc3ccc(Cl)c(Cl)c3)s2)n1	inactive
CC[N+](CC)(CC#Cc1ccccc1)CC#Cc1ccccc1	inactive
CC(=O)N1CCN(c2ccc(Nc3ncnc4c3oc3ccccc34)cc2)CC1	inconclusive [inhibitor, single point]
O=C(CSc1nc(-c2ccccc2)c(-c2ccccc2)[nH]1)Nc1ccc2c(c1)OCO2	inconclusive [inhibitor, partial curve]
CCCCNC(=O)NNc1nc(Cl)cc(C)c1C#N	active: 14.1 µM
CCN(Cc1ccccc1)C(=O)CCS(=O)(=O)c1cc2c(cc1Cl)NC(=O)CO2	inactive
S=C(NCCc1ccccc1)NCCc1ccccc1	active: 10 µM
Cc1cccc(C(=O)NC(=S)Nc2ccc(S(=O)(=O)N(C)c3ccccc3)cc2)c1	inconclusive [inhibitor, single point]
O=C(NC(Cc1c[nH]c2ccccc12)C(=O)O)/C(=C\c1ccc2c(c1)OCO2)NC(=O)c1ccccc1 (centres undefined)	inactive
CCCCC(=O)Nc1ccc(NC(=S)NC(=O)c2cccs2)cc1OC	inconclusive [inhibitor, single point]
Cc1nn2c3c(cnc2c1-c1ccccc1)C(=O)CC(c1ccco1)C3 (centres undefined)	inconclusive [inhibitor, single point]
Cc1oc2c(c1C(=O)N1CCOCC1)C(=O)c1ccccc1C2=O	inconclusive [inhibitor, partial curve]
O=C(Nc1nc2c(s1)CCCC2)c1ccc2ncsc2c1	inconclusive [inhibitor, full curve, poor fit]
S=c1[nH]nc(CCc2ccccc2)n1-c1ccccc1	active: 11.2 µM
Cc1c(N/N=C(\C#N)C(=O)c2ccccc2)c(=O)n(-c2ccccc2)n1C	inconclusive [inhibitor, single point]
Fc1ccc(/C=N/NC(=S)Nc2cccnc2)cc1F	inactive
CCCCNC(=O)c1ccc(Cn2c(=S)[nH]c3c([nH]c4ccc(OC)cc43)c2=O)cc1	active: 17.8 µM
Cc1ccc(S(=O)(=O)Nc2cc(C)cn(Cc3ccc(F)cc3)c2=O)cc1	active: 17.8 µM
Oc1ccc2ccccc2c1CN1CCN(c2ccccc2)CC1	inactive
CCc1nc2ccccc2c(C(=O)OCC(=O)Nc2ccc(S(=O)(=O)N3CCOCC3)cc2)c1C	inconclusive [inhibitor, single point]
COC(=O)c1sc(N)c(C(=O)OC)c1COC(=O)CNS(=O)(=O)c1ccc(C)c(C)c1	inactive
COc1cccc(/C(O)=C/C(=O)C(=O)Nc2ccc(S(=O)(=O)NC(C)=O)cc2)c1	inconclusive [activator, single point]
CC1CC2=C(NC(=S)NC2c2ccc(F)cc2)/C(=C/c2ccc(F)cc2)C1 (centres undefined)	active: 7.08 µM
